Results on 55 molecules are retold here after PMC4336329 (PLoS ONE, 2015).

In all, about 310,000 compounds went through this assay and about 14,000 (4.5%) showed an effect of 50% or more. The effect is printed as a negative number. This is one part of the list.
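Also: peak tail current of the secondary pulse compared with the same well before compound.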

The target of this experiment is human ether-à-go-go-related gene (hERG) potassium channel (human, UniProt Q12809). In words: primary screen, population patch clamp on CHO cells stably expressing hERG.
Sequence of human ether-à-go-go-related gene (hERG) potassium channel (Q12809 whole entry, looked up): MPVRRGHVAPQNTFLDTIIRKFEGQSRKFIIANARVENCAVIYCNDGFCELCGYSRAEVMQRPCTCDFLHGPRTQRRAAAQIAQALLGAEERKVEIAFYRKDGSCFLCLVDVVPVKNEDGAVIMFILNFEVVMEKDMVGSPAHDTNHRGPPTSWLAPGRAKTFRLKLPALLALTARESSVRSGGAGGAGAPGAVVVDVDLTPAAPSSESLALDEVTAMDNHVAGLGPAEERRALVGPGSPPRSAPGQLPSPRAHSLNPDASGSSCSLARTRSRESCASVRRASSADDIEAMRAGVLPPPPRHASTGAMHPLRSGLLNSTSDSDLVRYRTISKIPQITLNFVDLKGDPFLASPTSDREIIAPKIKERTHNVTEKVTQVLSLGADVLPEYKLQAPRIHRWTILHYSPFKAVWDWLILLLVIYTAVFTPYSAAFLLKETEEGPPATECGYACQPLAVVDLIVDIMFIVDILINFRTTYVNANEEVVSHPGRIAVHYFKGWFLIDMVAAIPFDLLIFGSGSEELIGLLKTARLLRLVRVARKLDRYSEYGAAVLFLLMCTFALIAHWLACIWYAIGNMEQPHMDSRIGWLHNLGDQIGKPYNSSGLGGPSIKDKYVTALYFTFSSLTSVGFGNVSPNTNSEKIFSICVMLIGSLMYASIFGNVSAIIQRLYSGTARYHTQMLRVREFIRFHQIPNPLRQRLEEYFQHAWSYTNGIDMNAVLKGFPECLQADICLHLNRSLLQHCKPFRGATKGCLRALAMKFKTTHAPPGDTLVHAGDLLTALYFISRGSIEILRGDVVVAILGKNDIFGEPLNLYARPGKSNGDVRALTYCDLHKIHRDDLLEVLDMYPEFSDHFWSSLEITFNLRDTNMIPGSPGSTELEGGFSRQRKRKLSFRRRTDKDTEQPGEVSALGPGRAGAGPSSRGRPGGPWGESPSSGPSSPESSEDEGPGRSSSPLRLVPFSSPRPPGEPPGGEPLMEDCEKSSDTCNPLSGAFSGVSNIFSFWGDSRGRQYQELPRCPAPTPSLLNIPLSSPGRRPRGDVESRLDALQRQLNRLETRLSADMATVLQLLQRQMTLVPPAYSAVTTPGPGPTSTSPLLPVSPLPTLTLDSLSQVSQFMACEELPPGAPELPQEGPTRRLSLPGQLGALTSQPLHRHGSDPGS
As for `CCN1CCN(C(=S)NC(C)c2ccccc2)CC1.O=C(O)C(=O)O` (stereo not shown), the “hERG current change (%, negative = inhibition) at 10uM” value was 3.4%.
As to `COc1ccc(CN2C=C3C(=O)C(C)(OC(=O)CCc4ccccc4)C(=O)C=C3C=C2c2ccc(C#N)cc2)cc1` (stereo not shown), the “hERG current change (%, negative = inhibition) at 10uM” value is reported as -31.7%.
In the case of `CC(CC(=O)O)CC(=O)NNC(=O)c1cccc(Br)c1` (stereo not shown), the “hERG current change (%, negative = inhibition) at 10uM” value is reported as 11.8%.
The value for `CCCCC1CCC(C(=O)NCc2ccc3c(c2)OCO3)CC1` (stereo not shown) was -9.78%; that for `CCN(CC)C(=O)C(=O)c1ccn(-c2c(C)csc2C(=O)OC)c1` was -9.5%.
For the molecule `N#Cc1ccc(Cn2c(-c3ccc(F)cc3)noc2=O)cc1`, the “hERG current change (%, negative = inhibition) at 10uM” value is reported as -17.8%.
With `O=C(CN1CCOCC1)Nc1ccc(Cl)c(Cl)c1.O=C(O)C(=O)O` the figure was 7.46%.
With `Cc1cnc(NC(=O)c2ccc(OCC3CCCO3)cc2)s1` (stereo not shown) the figure was 17.5%; with `Cc1sc2ncnc(SCC(=O)N(C)C3CCS(=O)(=O)C3)c2c1C` (stereo not shown), -21.8%.
The value for `O=C(O)C1CCCN(S(=O)(=O)c2ccc(F)cc2)C1` (stereo not shown) was 20.4%; that for `CC[C@@H](C)[C@H](NC(=O)Cc1c(C)c2c(cc(C)c3c(C)c(C)oc32)oc1=O)C(=O)O` was 7.76%.
In the case of `CCOC(=O)c1c(C)[nH]c(C)c1S(=O)(=O)N(C)CC(=O)Nc1ccccc1OC`, the “hERG current change (%, negative = inhibition) at 10uM” value is -60%.
The value for `Cc1ccc(/C(N)=N/OC(=O)Cc2ccccc2)cc1` was 19%; that for `COc1ccc(C2C(C#N)=C(N)Oc3c2c(C)nn3-c2ccccc2)cc1Cn1nc(C)c([N+](=O)[O-])c1C` (stereo not shown) was -4.96%; that for `COc1cccc(NC(=O)COC(=O)c2c(C)nn(-c3ccccc3)c2C)c1` was -7.46%.
The value for `CC(C)C(NC(=O)c1ccccc1)c1nnc(SCC(=O)Nc2nccs2)n1C` (stereo not shown) was 12.8%.
Regarding `COc1cccc(N2C(=O)C(CC(=O)Nc3ccccc3)N(C3CCCCC3)C2=O)c1` (stereo not shown), the “hERG current change (%, negative = inhibition) at 10uM” value was -10.2%.
The value for `COc1ccc(NC(=O)CN(C)C(=O)c2cn(-c3ccccc3)nc2-c2ccc(Cl)cc2)cc1` was 12.1%; that for `COc1ccc(Cl)cc1S(=O)(=O)NC1CC(C)(C)NC(C)(C)C1` was 19.8%.
With `O=P(O)(CP(=O)(c1ccccc1)c1ccccc1)c1ccccc1` the figure was 10.6%.
The value for `COc1ccc(OC)c(S(=O)(=O)Nc2ccccc2C(F)(F)F)c1` was -6.75%; that for `CCOc1cc(C)c(Cl)cc1S(=O)(=O)n1nnc2ccccc21` was 6.52%.
For `CC(=O)Nc1ccc(NC(=O)C2CCCN(c3nnc(-n4cccc4)s3)C2)cc1` (stereo not shown), the “hERG current change (%, negative = inhibition) at 10uM” value is reported as 7.44%.
With `Cn1c(=O)c2[nH]c(C3CCCC3)nc2n(C)c1=O` the figure was 7%.
With `O=C(CCN1CCN(Cc2ccccc2)CC1)NNC(=O)Nc1cccc(C(F)(F)F)c1` the figure was -48.4%.
The value for `CC(=O)c1cn(CC(=O)Nc2ccccc2F)c2ccccc12` was 2.54%; that for `CC(C)CC(COCc1ccc(Cl)cc1)N1CCN(C(=O)c2ccc(Cl)cc2Cl)CCC1=O` (stereo not shown) was -11.8%.
Regarding `CCc1ccccc1-n1c(SCC(=O)N2CCCC2)nnc1-c1ccccn1`, the “hERG current change (%, negative = inhibition) at 10uM” value is -4.94%.
With `C=CCN(Cc1ccc(OC)c(OC)c1)C(=O)N1CCOCC1` the figure was -19.7%; with `COc1ccc(C(=O)O/N=C(\N)Cc2cccs2)cc1OC`, 3.79%; with `Cc1c(N)cc(C(=O)N2CCOCC2)cc1[N+](=O)[O-]`, 9.24%.
On to `COC(=O)c1c(C)oc2c1cc(NS(=O)(=O)c1cccs1)c1ccccc12`, for which the “hERG current change (%, negative = inhibition) at 10uM” value is listed as -2.87%.
The value for `COc1ccc(/C=C(\NC(=O)c2ccc(Cl)cc2)C(=O)NCCCn2ccnc2)cc1OC` was 13.9%.
With `COc1ccc(S(=O)(=O)N2CCC(C(=O)NCc3cccnc3)CC2)cc1OC` the figure was 16.1%; with `O=C(NCc1ccccc1)c1ccc(Cl)cc1`, 2.26%; with `CCCCNC(=O)c1onc(CSc2cccc(OCC)c2)c1C(=O)O`, 13.1%.
`C=CCOC(=O)CC(NC(=O)c1ccccc1)c1ccccc1` (stereo not shown): the “hERG current change (%, negative = inhibition) at 10uM” value was -20.9%.
Regarding `CCS(=O)(=O)CCSc1nc2ccccc2o1`, the “hERG current change (%, negative = inhibition) at 10uM” value came out at 11%.
On to `Cc1ccc(-c2n[nH]c(=S)n2/N=C/C=C\c2ccccc2[N+](=O)[O-])cc1`, for which the “hERG current change (%, negative = inhibition) at 10uM” value stood at 11%.
In the case of `COc1ccccc1NC(=O)C(C)n1cnc2c(oc3nc4c(cc32)CCCC4)c1=O` (stereo not shown), the “hERG current change (%, negative = inhibition) at 10uM” value was -6.89%.
With `CCOc1ccccc1NC(=O)CCCN1C(=S)NC(C)(C)CC1C` (stereo not shown) the figure was 6.95%; with `COc1cc(C(=O)Nc2ccc(C(=O)c3cccs3)cc2)cc(OC)c1OC`, -10.1%.
As to `NS(=O)(=O)c1ccc(NC(=S)N2CCN(c3ccccc3)CC2)cc1`, the “hERG current change (%, negative = inhibition) at 10uM” value is on record as 11.9%.
With `CCOC(=O)c1c(-c2cccs2)csc1NC(=O)CC(C)C` the figure was 7.62%; with `CSc1ncccc1C(=O)Nc1ccc(S(=O)(=O)NC2=NCCCCC2)cc1`, 7.85%; with `CCn1cc(C(=O)Nc2ccc(C)cc2C)c(=O)c2ccc(C)nc21`, 20.3%.
With `CCC(C)(C)NC(=O)CN(Cc1ccco1)C(=O)CCC(=O)Nc1nccs1` the figure was -0.68%; with `COC(=O)c1ccc(S(=O)(=O)N2CCc3ccccc32)cc1`, 8.09%.
With `CC(=O)Nc1ccc(NC(=O)C(C)OC(=O)C2(c3ccccc3F)CCCC2)cc1` (stereo not shown) the figure was 7.14%.
Consider `O=c1[nH]c(SCc2ccc([N+](=O)[O-])cc2)nc2[nH]ncc12`, for which the “hERG current change (%, negative = inhibition) at 10uM” value is on record as -30.9%.
The value for `Cc1ccc2nc(N(CCCN(C)C)C(=O)c3ccc(S(=O)(=O)N(C)C)cc3)sc2c1.Cl` was -42.1%; that for `O=C(NNC(=O)c1ccc([N+](=O)[O-])cc1)c1ccncc1` was -14.9%; that for `CN(Cc1ccccc1)c1nc2c(c(=O)[nH]c(=O)n2C)n1CCSc1nc2ccccc2[nH]1` was -18.5%.
With `N#Cc1c(N2C(=O)Nc3ccccc3N2O)sc2c1CCCC2` the figure was 7.72%; with `COCCCNC(=S)NNC(=O)c1ccoc1C`, 21.4%.
